In PubChem BioAssay AID1159614 (National Center for Advancing Translational Sciences (NCATS), 2016):
The campaign covered roughly 45,000 compounds. About 65 (0.1%) were called active. The call rests on the fitted dose curve; in most records, active means well fitted activation curve with a large enough effect; inconclusive means small, poorly fitted or top-dose-only effect; inactive means no such curve, though single readings can be large or run the other way. This is one part of the list.

What follows are compounds tested against Galactocerebrosidase (Homo sapiens) (UniProt P54803) (assay: A Novel Cell-Based Assay to Identify Small Molecules for B -Galactocerebrosidase). Details: 145M-Twi-hGALC-G270D cells (Twitcher mouse brain line with human GALC G270D), HMU-beta-Gal fluorescence, 48 h; series mostly up to 57.5 µM; activation: at the top concentration.
In short: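 Live 145M-Twi cells (Twitcher mouse brain-derived, GALC-null) stably expressing human GALC-G270D, with a wild-type GALC line, were compound-treated. Residual GALC activity was then read as fluorescence from 0.1 mM final HMU-β-gal at pH 5.2; higher signal means activation.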
Further: 0% is about no effect; nearly all actives have a fitted effect of over 65% in size.

Chain of UniProt P54803 (P54803 whole entry, looked up): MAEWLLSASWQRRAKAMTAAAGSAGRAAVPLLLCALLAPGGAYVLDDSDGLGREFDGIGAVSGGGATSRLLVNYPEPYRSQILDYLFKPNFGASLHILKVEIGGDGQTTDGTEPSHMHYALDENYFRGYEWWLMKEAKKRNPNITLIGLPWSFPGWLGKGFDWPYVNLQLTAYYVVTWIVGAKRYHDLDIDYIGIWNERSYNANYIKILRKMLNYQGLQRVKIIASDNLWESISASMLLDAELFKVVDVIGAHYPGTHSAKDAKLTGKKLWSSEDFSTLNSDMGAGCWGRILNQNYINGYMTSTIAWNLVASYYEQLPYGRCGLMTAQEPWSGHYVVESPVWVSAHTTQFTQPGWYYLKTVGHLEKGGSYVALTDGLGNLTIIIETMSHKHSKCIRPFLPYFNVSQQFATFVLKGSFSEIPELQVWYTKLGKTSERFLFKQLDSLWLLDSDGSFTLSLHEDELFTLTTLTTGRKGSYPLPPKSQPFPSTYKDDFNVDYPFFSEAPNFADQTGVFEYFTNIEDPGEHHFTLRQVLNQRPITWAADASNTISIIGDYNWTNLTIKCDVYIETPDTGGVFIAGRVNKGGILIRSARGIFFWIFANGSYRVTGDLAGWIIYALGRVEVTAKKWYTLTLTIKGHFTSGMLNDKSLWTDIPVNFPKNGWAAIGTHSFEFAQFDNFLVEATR

activation, inactive:
COc1ccc(S(=O)(=O)N2Cc3ccccc3CC2C(=O)Nc2ccc(C)cc2)cc1OC (stereo unspecified) -6.8%, COc1cccc(CNC(=O)C(=O)NCC(c2cccs2)S(=O)(=O)c2ccccc2)c1 (stereo unspecified) 9.38%, COc1ccc(CCNC(=O)CCCn2c(=O)c3ccccc3n(Cc3ccccc3)c2=O)cc1OC 2.71%, COc1c(Cl)cc(Cl)cc1C(=O)Nc1cccc(-c2nc3ccccc3o2)c1C -17.6%, O=S(=O)(c1ccc(F)cc1)N1CCC(Oc2cccc(C(F)(F)F)c2)CC1 -10.1%, CCc1ccccc1NC(=O)c1cn(C)c(=O)c2ccccc12 10.9%, CCn1c(COc2ccc(Cl)cc2Cl)nc2ccccc21 -13.6%, Cc1ccc(C)c(NC(c2ccccc2)c2nnc(-c3ccccc3F)o2)c1 (stereo unspecified) -16.2%, CCOC(=O)CC(NC(=O)Cn1nnc(-c2ccccc2Cl)n1)c1ccc(OC)cc1 (stereo unspecified) -15.5%, COc1ccc(CCN2C(=O)N(c3cccc(C)c3)C(=O)C2CC(=O)Nc2ccccc2)cc1OC (stereo unspecified) -8.35%, Clc1ccc(CCNc2nc3cc(Cl)c(Cl)cc3n3cnnc23)cc1 -4.97%, Cc1cccc(CCNC(=O)c2cc(S(=O)(=O)N3CCCCC3)c[nH]2)c1 -11.4%, C/C=C/c1ccc(OC)cc1 -10.8%, Cc1c2cnn(-c3ccccc3)c(=O)c2c(C)n1C(C)C(=O)Nc1ccccc1C(F)(F)F (stereo unspecified) -3.81%, Cc1cccc(N2CCN(C(=O)c3ccc4c(c3)N(Cc3ccccc3)C(=O)c3ccccc3S4(=O)=O)CC2C)c1 (stereo unspecified) -10.5%, COc1ccccc1CNC(=O)CSc1ncc(S(=O)(=O)c2ccc(C)c(Cl)c2)c(=O)[nH]1 -10.1%, COc1cc(-c2nc(SCC(=O)Nc3ccc4c(c3)OCO4)c(-c3ccccc3)[nH]2)cc(OC)c1OC -12.4%, COc1ccc(-c2nnc(C3CCN(S(=O)(=O)c4cccc(Cl)c4)CC3)o2)cc1 -9.48%, COc1ccc(-c2nnc(SCC(=O)N3CCC(C)CC3)o2)cc1 -12.1%, CCCN(CCC)CCc1cccc2c1CC(=O)N2 2.68%, CNC(=O)C1CCC(Cn2c(=O)c3sccc3n(CC(=O)N3CCCC(C)C3)c2=O)CC1 (stereo unspecified) -12.9%, COCCCNC(=O)C1CCN(Cc2cc3ccccc3n2Cc2cccc(C)c2)CC1 -4.34%, COc1ccc(OCCn2c(NC(=O)c3ccc(OC)cc3)nc3ccccc32)cc1 -18.3%, COc1ccccc1N1CCN(C(=O)C2CCCN(S(=O)(=O)c3ccc4c(c3)CCCN4C(C)=O)C2)CC1 (stereo unspecified) -7.42%, COc1cc(NC(=O)CSc2nc3nc(C)c(Cc4ccccc4Cl)c(C)n3n2)cc(OC)c1 -14.1%, Cc1ccc(Nc2ncnc3sc4c(c23)CCC(C)C4)cc1C (stereo unspecified) -20.2%, CCOC(=O)C1(C)C=C(Nc2cccc(C(=O)O)c2)C(=O)N1c1ccccc1 (stereo unspecified) -13.8%, Cc1ccc(CNC(=O)C(=O)NCC(c2ccc3c(c2)OCO3)N2CCOCC2)cc1 (stereo unspecified) -31.6%, Cc1ccc2c(=O)cc(C(=O)Nc3c(C)n(C)n(-c4ccccc4)c3=O)oc2c1 -9.97%, COc1cc2nc(SCc3ccc(C)cc3)n3nc(CCn4nc(C)cc4C)nc3c2cc1OC -11.4%, CC(C)Cn1c(-c2cccc(Br)c2)nc2ccccc21 -2.66%, COC(=O)C(CCSC)Nc1ncnc2onc(-c3ccc(F)cc3)c12 (stereo unspecified) -11.3%, CCCOc1ccc(CNC(=O)C(NS(=O)(=O)c2cccs2)C(C)C)cc1 (stereo unspecified) -8.43%, COc1cc(Cl)c(C)cc1NC(=O)c1cnc(N2CCCCC2)c2ccccc12 -8.08%, OCc1cnc(SCc2ccccc2F)n1Cc1ccc(F)cc1 -18.6%, Cc1cc(C)cc(NC(=O)C(Cc2ccccc2)NS(=O)(=O)c2ccc3c(c2)CCC(=O)N3)c1 (stereo unspecified) -15.8%, CCOc1ccccc1NC(=O)C(=O)Nc1ccc2nc3n(c(=O)c2c1)CCCCC3 -2.92%, Cc1cc(C)c(NC(=O)C2CCCN(S(=O)(=O)c3c(C)noc3C)C2)c(C)c1 (stereo unspecified) -18.5%, Cc1ccccc1OCc1ccc(-c2nc(C#N)c(N3CCN(c4cccc(Cl)c4)CC3)o2)o1 -11.3%, O=C(c1ccccc1)N1c2nc(-c3ccco3)nn2C2(CCCCC2)[C@@H]2CCCC[C@@H]21 -1.2%, Cc1cc(C)cc(NC(=O)Cc2noc3ccccc23)c1 4.08%, CCN(CC)S(=O)(=O)c1ccc(C(=O)NCCSc2c(-c3ccccc3)[nH]c3ccccc23)cc1 -16.8%, CCC(=O)N1CCc2cc(S(=O)(=O)NCCC(=O)Nc3ccc(N(CC)CC)cc3C)ccc21 -19.3%, CCCCCCOc1ccc(C2C(=O)N(C3CCCCC3)CC(=O)N2C2CCCCC2)cc1 (stereo unspecified) -5.38%, NC(=O)c1cc(S(=O)(=O)N2CCN(c3cccc(C(F)(F)F)c3)CC2)cs1 -11.1%, COc1cc(NC(=O)CSc2c3c(nc4ccccc24)CCC3)cc(OC)c1OC -2.52%, O=C(c1ccc2c(c1)N(Cc1ccc(F)cc1)C(=O)c1ccccc1S2(=O)=O)N1CCCCC1 -3.73%, Cc1ccc(-c2nn3c(C)nnc3c3ccccc23)cc1S(=O)(=O)NCC(C)O (stereo unspecified) -10.8%, Cc1ccc(-n2ncc(C(=O)NCc3ccco3)c2C2CCN(C(=O)OC(C)(C)C)CC2)cc1C -6.02%, CCc1ccccc1N(C)C(=O)C1CCCN(c2ncnc3c2nc2n3CCCCC2)C1 (stereo unspecified) -28.3%, COc1cc(NC(=O)c2cc3cc4ccc(C)cc4nc3o2)cc(OC)c1OC -5.5%, O=C(CSc1nc2ccccc2nc1Cc1ccc(Cl)cc1)N1CCN(c2ccccc2)CC1 -1.12%, O=C(CSc1nc(-c2cccc(F)c2)[nH]c1-c1ccccc1)Nc1ccc2c(c1)OCO2 -17.2%, Cc1c(C(=O)Nc2cc(F)ccc2F)sc2nc(-c3ccc(F)cc3)cn12 -7.69%, Cc1ccc(-n2nc(C)c3c(C(F)(F)F)cc(-c4cccnc4)nc32)cc1Cl -8.57%, COc1ccccc1C(=O)Nc1c(C(=O)NC(C)(C)C)oc2ccccc12 -13.7%, COc1ccc(NC2=C(c3ccc(C(F)(F)F)cc3)C(=O)c3ccccc32)cc1 -15.1%, COc1cccc(NC(=O)CN2C(=O)c3ccccc3Sc3ncccc32)c1 -0.382%, Cc1ccc(-c2nc(C)c(CCNC(=O)c3ccccc3Br)s2)cc1 8.26%, COc1ccc(S(=O)(=O)N2CCN(c3ccccc3OC)CC2)cc1 -19.4%, CCOC(=O)c1ccc(NC(=O)c2cn3c4c(ccc(Cl)c4c2=O)OC(C)C3)cc1 (stereo unspecified) -10.2%
